According to the supplement of paper PMC8728848:
The list shows a part of the results.

Legend:
Experiment in all cases: glycan array binding signal (z-score within array); higher = stronger binding
Details in all cases: glycan notation: IUPAC condensed, linker removed
[1] = biological target: GlcNAc(b1-4)GlcNAc(b1-4)GlcNAc(b1-4)GlcNAc(b1-4)GlcNAc(b1-4)GlcNAc
In short: (§1)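 Columns mapping to the same glycan were averaged after glycan names were converted to IUPAC-condensed notation. The data come from 3228 arrays in the Consortium for Functional Glycomics database, limited to those with an available protein sequence. Binding is reported as a within-array Z-score averaged across arrays of one protein sequence and across linkers.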

[2] = biological target: GlcNAc(b1-4)[GlcNAc(b1-6)]GalNAc
In short: as §1

[3] = biological target: GlcNAc(b1-6)Gal(b1-4)GlcNAc
In short: as §1

[4] = biological target: GlcNAc(b1-6)GalNAc
In short: as §1

[5] = biological target: GlcNAc6S(b1-3)Gal(b1-4)GlcNAc
In short: as §1

[6] = biological target: Kdn(a2-3)Gal(b1-3)GalNAc
In short: as §1

[7] = biological target: Kdn(a2-3)Gal(b1-3)GlcNAc
In short: as §1

[8] = biological target: Kdn(a2-3)Gal(b1-4)Glc
In short: as §1

[9] = biological target: Kdn(a2-3)Gal(b1-4)GlcNAc
In short: as §1

[10] = biological target: Kdn(a2-3)Gal(b1-4)[Fuc(a1-3)]GlcNAc
In short: as §1

[11] = biological target: Kdn(a2-6)Gal(b1-4)GlcNAc
In short: as §1

[12] = biological target: Man(a1-2)Man(a1-2)Man(a1-3)Man
In short: as §1

[13] = biological target: Man(a1-2)Man(a1-2)Man(a1-6)[Man(a1-3)]Man
In short: as §1

[14] = biological target: Man(a1-2)Man(a1-3)Man
In short: as §1

[15] = biological target: Man(a1-2)Man(a1-3)[Man(a1-2)Man(a1-6)]Man
In short: as §1

[16] = biological target: Man(a1-2)Man(a1-3)[Man(a1-2)Man(a1-6)]Man(a1-6)[Man(a1-2)Man(a1-2)Man(a1-3)]Man
In short: as §1

[17] = biological target: Man(a1-2)Man(a1-3)[Man(a1-2)Man(a1-6)]Man(a1-6)[Man(a1-2)Man(a1-2)Man(a1-3)]Man(b1-4)GlcNAc(b1-4)GlcNAc
In short: as §1

[18] = biological target: Man(a1-2)Man(a1-3)[Man(a1-6)]Man(a1-6)[Man(a1-2)Man(a1-3)]Man(b1-4)GlcNAc(b1-4)GlcNAc
In short: as §1

[19] = biological target: Man(a1-2)Man(a1-6)[Man(a1-3)]Man(a1-6)[Man(a1-2)Man(a1-2)Man(a1-3)]Man
In short: as §1

[20] = biological target: Man(a1-2)Man(a1-6)[Man(a1-3)]Man(a1-6)[Man(a1-2)Man(a1-2)Man(a1-3)]Man(b1-4)GlcNAc(b1-4)GlcNAc
In short: as §1

[21] = biological target: Man(a1-3)[Man(a1-6)]Man
In short: as §1

[22] = biological target: Man(a1-3)[Man(a1-6)]Man(a1-6)[Man(a1-2)Man(a1-3)]Man(b1-4)GlcNAc(b1-4)GlcNAc
In short: as §1

[23] = biological target: Man(a1-3)[Man(a1-6)]Man(a1-6)[Man(a1-3)]Man
In short: as §1

[24] = biological target: Man(a1-3)[Man(a1-6)]Man(a1-6)[Man(a1-3)]Man(b1-4)GlcNAc(b1-4)GlcNAc
In short: as §1

[25] = biological target: Man(a1-3)[Man(a1-6)]Man(b1-4)GlcNAc(b1-4)GlcNAc
In short: as §1

[26] = biological target: Man(a1-3)[Man(a1-6)]Man(b1-4)GlcNAc(b1-4)[Fuc(a1-6)]GlcNAc
In short: as §1

[27] = biological target: Man(a1-6)Man
In short: as §1

[28] = biological target: Man(b1-4)GlcNAc
In short: as §1

[29] = biological target: MurNAc(b1-4)GlcNAc
In short: as §1

[30] = biological target: Neu5Ac(a2-3)Gal
In short: as §1

[31] = biological target: Neu5Ac(a2-3)Gal(b1-3)GalNAc
In short: as §1

[32] = biological target: Neu5Ac(a2-3)Gal(b1-3)GalNAc(b1-3)Gal(a1-4)Gal(b1-4)Glc
In short: as §1

[33] = biological target: Neu5Ac(a2-3)Gal(b1-3)GalNAc(b1-4)Gal(b1-4)Glc
In short: as §1

[34] = biological target: Neu5Ac(a2-3)Gal(b1-3)GalNAc(b1-4)[Neu5Ac(a2-3)]Gal(b1-4)Glc
In short: as §1

[35] = biological target: Neu5Ac(a2-3)Gal(b1-3)GalNAc(b1-4)[Neu5Ac(a2-8)Neu5Ac(a2-3)]Gal(b1-4)Glc
In short: as §1

[36] = biological target: Neu5Ac(a2-3)Gal(b1-3)GalNAc6S
In short: as §1

[37] = biological target: Neu5Ac(a2-3)Gal(b1-3)GlcNAc
In short: as §1

B1: B725 (Bifidobacterium sp) (protein)
chain: MNNTTRAVIATAAIGALLIPLAGCGNTTTSSGKTELTVWSWDASIDRAAKSFMKANPDITVKVSNVGSTEETYTALNNAAQAGSGLPDVTLIEYLAIPQFVHSDTLMDLSKVYNTAKLKDTFTPGTWNSVNINGGLYAMPADSGPMAYFYDKDVFDKAGISEPPTTWDEFYEDAKKIRATGSYITSDSGDAGLFNAMMWAMGGHAYKLNDDKLTINIAKDKGAQRFMDLWQKMRDEDLIDVHTKTWTDDWMKSLGDGSIASLISGAWMANNLLQGVPQATGKFRVALLPTIDGTPINGEYGGSGLAITKKIPDGKLDAAKKFVEYVTTNDEGIDARVSNGSFPATTKTLNQKDFLAKTTLRNTDGSDNEFFGGQKYNEIFSQAAKDVTGKWEFLPFEPYARSVYNDNMGSFFAGKTSFRTAADNWQKALKDYAKDQGFTVQ
Question: Which “glycan array binding signal (z-score)” value [1] does the source give for B1 here?
Answer: -0.231

Question: What about the “glycan array binding signal (z-score)” value [2] of the same binder?
Answer: -0.219

Question: And the “glycan array binding signal (z-score)” value [3]?
Answer: -0.227

Question: And the “glycan array binding signal (z-score)” value [4]?
Answer: -0.226

Question: And the “glycan array binding signal (z-score)” value [5]?
Answer: -0.087

Question: And the “glycan array binding signal (z-score)” value [6]?
Answer: -0.219

Question: And the “glycan array binding signal (z-score)” value [7]?
Answer: -0.213

Question: What about the “glycan array binding signal (z-score)” value [8] of the same binder?
Answer: -0.211

Question: And the “glycan array binding signal (z-score)” value [9]?
Answer: -0.23

Question: And the “glycan array binding signal (z-score)” value [10]?
Answer: -0.217

Question: And the “glycan array binding signal (z-score)” value [11]?
Answer: -0.147

Question: And the “glycan array binding signal (z-score)” value [12]?
Answer: -0.192

Question: What about the “glycan array binding signal (z-score)” value [13] of the same binder?
Answer: -0.215

Question: What about the “glycan array binding signal (z-score)” value [14] of the same binder?
Answer: -0.229

Question: And the “glycan array binding signal (z-score)” value [15]?
Answer: -0.221

Question: And the “glycan array binding signal (z-score)” value [16]?
Answer: -0.228

Question: And the “glycan array binding signal (z-score)” value [17]?
Answer: -0.236

Question: And the “glycan array binding signal (z-score)” value [18]?
Answer: -0.237

Question: What about the “glycan array binding signal (z-score)” value [19] of the same binder?
Answer: -0.217

Question: What about the “glycan array binding signal (z-score)” value [20] of the same binder?
Answer: -0.22

Question: What about the “glycan array binding signal (z-score)” value [21] of the same binder?
Answer: -0.224

Question: And the “glycan array binding signal (z-score)” value [22]?
Answer: -0.226

Question: And the “glycan array binding signal (z-score)” value [23]?
Answer: -0.234

Question: What about the “glycan array binding signal (z-score)” value [24] of the same binder?
Answer: -0.227

Question: And the “glycan array binding signal (z-score)” value [25]?
Answer: -0.224

Question: And the “glycan array binding signal (z-score)” value [26]?
Answer: -0.203

Question: What about the “glycan array binding signal (z-score)” value [27] of the same binder?
Answer: -0.232

Question: And the “glycan array binding signal (z-score)” value [28]?
Answer: -0.231

Question: And the “glycan array binding signal (z-score)” value [29]?
Answer: -0.232

Question: What about the “glycan array binding signal (z-score)” value [30] of the same binder?
Answer: -0.213

Question: What about the “glycan array binding signal (z-score)” value [31] of the same binder?
Answer: -0.218

Question: What about the “glycan array binding signal (z-score)” value [32] of the same binder?
Answer: -0.221

Question: And the “glycan array binding signal (z-score)” value [33]?
Answer: -0.199

Question: And the “glycan array binding signal (z-score)” value [34]?
Answer: -0.184

Question: What about the “glycan array binding signal (z-score)” value [35] of the same binder?
Answer: -0.218

Question: And the “glycan array binding signal (z-score)” value [36]?
Answer: -0.218

Question: What about the “glycan array binding signal (z-score)” value [37] of the same binder?
Answer: -0.222
